The record followed here is publication PMC4336329 (PLoS ONE, 2015).

Screen size: about 310,000 compounds; about 14,000 (4.5%) showed an effect of 50% or more. The effect is printed as a negative number. Some of the results follow.
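Note: peak tail current of the secondary pulse compared with the same well before compound.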

Chain of human ether-à-go-go-related gene (hERG) potassium channel (Q12809 whole entry, looked up): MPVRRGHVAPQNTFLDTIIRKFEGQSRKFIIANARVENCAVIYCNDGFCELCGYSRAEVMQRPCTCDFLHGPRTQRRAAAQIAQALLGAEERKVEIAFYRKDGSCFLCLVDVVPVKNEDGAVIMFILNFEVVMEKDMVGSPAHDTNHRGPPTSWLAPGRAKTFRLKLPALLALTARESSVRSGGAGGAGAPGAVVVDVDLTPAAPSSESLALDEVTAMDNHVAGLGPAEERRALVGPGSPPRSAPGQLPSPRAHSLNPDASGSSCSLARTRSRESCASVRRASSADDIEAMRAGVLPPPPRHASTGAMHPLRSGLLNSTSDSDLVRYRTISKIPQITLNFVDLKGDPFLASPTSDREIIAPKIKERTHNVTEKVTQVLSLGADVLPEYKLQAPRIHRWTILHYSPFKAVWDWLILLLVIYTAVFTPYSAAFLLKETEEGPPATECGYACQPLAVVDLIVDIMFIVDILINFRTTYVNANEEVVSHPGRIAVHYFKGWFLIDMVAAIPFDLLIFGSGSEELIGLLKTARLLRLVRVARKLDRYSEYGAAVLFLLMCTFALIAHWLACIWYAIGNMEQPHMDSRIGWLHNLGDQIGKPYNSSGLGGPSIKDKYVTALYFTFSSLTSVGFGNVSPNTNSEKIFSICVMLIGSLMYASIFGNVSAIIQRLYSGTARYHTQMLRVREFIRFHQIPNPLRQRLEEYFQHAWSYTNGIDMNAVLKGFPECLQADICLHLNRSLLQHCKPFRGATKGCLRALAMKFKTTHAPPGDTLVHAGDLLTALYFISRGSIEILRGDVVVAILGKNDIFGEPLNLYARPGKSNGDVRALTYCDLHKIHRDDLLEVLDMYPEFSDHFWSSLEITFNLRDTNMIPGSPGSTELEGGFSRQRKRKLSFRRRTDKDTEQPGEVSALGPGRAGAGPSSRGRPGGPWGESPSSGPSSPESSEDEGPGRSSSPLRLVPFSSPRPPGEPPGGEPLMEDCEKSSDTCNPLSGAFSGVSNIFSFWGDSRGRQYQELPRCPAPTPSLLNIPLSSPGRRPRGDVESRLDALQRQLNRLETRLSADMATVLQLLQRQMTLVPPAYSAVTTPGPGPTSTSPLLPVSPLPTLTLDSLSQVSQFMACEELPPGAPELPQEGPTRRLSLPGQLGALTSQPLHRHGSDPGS

This assay addresses human ether-à-go-go-related gene (hERG) potassium channel (human, UniProt Q12809). In words: primary screen, population patch clamp on CHO cells stably expressing hERG.
For the compound `COc1ccc(NC2CCCN(C(=O)CCN3Cc4ccccc4C3=O)C2)cc1` (stereo not shown), the “hERG current change (%, negative = inhibition) at 10uM” value was -13.1%.
The result for `CCCC(=O)c1ccc(N2CCN(C(=O)c3cccs3)CC2)c(F)c1` reads -75.1%.
Regarding `Cc1c(-c2ccccc2)nnn1-c1ccc(F)cc1F`, the “hERG current change (%, negative = inhibition) at 10uM” value is recorded as -0.308%.
The result for `Cc1nn(-c2ccccc2)c(C)c1C(=O)OCC(=O)N(C)C1CCS(=O)(=O)C1` (stereo not shown) reads 2.5%.
The result for `CCCOc1ccc(C(=O)Nc2ccc(S(=O)(=O)N3CCN(C)CC3)cc2)cc1` reads 18.6%; that for `O=C(CN1CCN(Cc2ccccc2)CC1)N/N=C/c1ccc(Br)s1`, -60%; that for `Cc1ccc(C(=O)OC(C)CN2CCN(C)CC2)cc1.Cl` (stereo not shown), 1.69%.
The result for `CC(C)CCNC(=O)CN(C(=O)CCC(=O)Nc1ccccn1)c1ccc2c(c1)OCO2` reads -13.2%; that for `COc1cc(C(=O)Nc2nnc(-c3sccc3C)s2)cc(OC)c1OC`, 4.78%.
`COc1cccc(OC)c1C(=O)Nc1ccc([N+](=O)[O-])cn1`: the “hERG current change (%, negative = inhibition) at 10uM” value was 1.95%.
The result for `Cn1c2ccccc2c2nnc(SCc3nnc(-c4ccccc4)o3)nc21` reads -27.9%.
The result for `COC(C(=O)Nc1ccnn1C1CCN(Cc2cnn(C(C)C)c2)CC1)c1ccccc1` (stereo not shown) reads -2.06%; that for `CCOc1ccccc1NC(=O)C(=O)/C=C(\O)c1cc(OC)ccc1OC`, 26.1%.
For the compound `COc1ccc(C(=O)NC2CCc3ccccc32)cc1OC1CCN(C(C)C)CC1` (stereo not shown), the “hERG current change (%, negative = inhibition) at 10uM” value is -17.6%.
As to `O=C(c1cccn2c(=O)c3ccccc3nc12)N1CCN(Cc2ccc3c(c2)OCO3)CC1`, the “hERG current change (%, negative = inhibition) at 10uM” value is given as -67.7%.
The result for `Cc1ccc(/C=N/NC(=O)CN2CCN(Cc3ccccc3)CC2)s1` reads -55.8%; that for `COc1ccc(-c2csc(N)n2)cc1`, -6.71%; that for `Cc1nc(NC(=O)CSc2nnc3ccccn23)c(Cl)cc1Cl`, -3.58%.
In the case of `O=C(NCC1CCCO1)c1cnc(Cl)c(Cl)c1` (stereo not shown), the “hERG current change (%, negative = inhibition) at 10uM” value is 13.9%.
`CC(C)OCCCNC(=O)CNC(=O)c1cccs1`: the “hERG current change (%, negative = inhibition) at 10uM” value is listed as 4.99%.
The result for `Cc1ccccc1CC1(CO)CCCN(C(=O)c2ccc3ncccc3c2)C1` (stereo not shown) reads -7.32%; that for `O=[N+]([O-])c1ccc(Cl)c(CN2CCN(c3ncccn3)CC2)c1`, -5.2%; that for `NS(=O)(=O)c1ccc(NC(=O)COC(=O)CNC(=O)C23CC4CC(CC(C4)C2)C3)cc1`, 4.95%.
The result for `CCN1C(=O)CC(N2CCC(Nc3ccc(F)cc3)CC2)C1=O` (stereo not shown) reads 2.76%.
The result for `NS(=O)(=O)c1ccc(NCc2ccccc2OCc2ccc(F)cc2)cc1` reads -17%; that for `Cc1cnc(C(=O)Nc2ccc(C)c(S(=O)(=O)N3CCCCC3)c2)cn1`, 5.03%.
For `Cc1ccc(C)c(NC(=O)C2CCCN2C(=O)OC(C)(C)C)c1` (stereo not shown), the “hERG current change (%, negative = inhibition) at 10uM” value came to 1.04%.
The result for `c1ccc(-c2ccc3sccc3n2)cc1` reads 5.69%; that for `Cc1ccc(NC(=O)C(C)OC(=O)Cc2c[nH]c3ccccc23)cc1` (stereo not shown), 2.1%; that for `Cc1ccc(N2C(=O)NC(=O)/C(=C/C=C/c3ccco3)C2=O)cc1`, 14.6%.
The result for `COc1cc2c(cc1OC)C1=C(C#N)CC/C(=N\S(=O)(=O)c3cccc(Cl)c3)N1CC2` reads -23.3%; that for `O=c1cc(CN2CCN(Cc3ccccc3)CC2)c2ccc(O)c(O)c2o1`, -65.8%.
The result for `CC(C)n1nnnc1SCC(=O)N1CCN(Cc2ccc3c(c2)OCCO3)CC1` reads -9.13%; that for `O=c1[nH]c(=S)n(C2CC2)c(O)c1C=NCCc1ccccc1`, 7.26%.
On to `COCCn1nnnc1CN(Cc1ccco1)Cc1cc2cc3c(cc2[nH]c1=O)OCO3`, for which the “hERG current change (%, negative = inhibition) at 10uM” value is -10.1%.
The result for `Cc1ccc(S(=O)(=O)c2c(N)n(Cc3ccco3)c3nc4ccccc4nc23)cc1C` reads -9.7%.
The result for `CC(C)(C)NC(=O)[C@@H]1C[C@@H]2CCCC[C@@H]2CN1C[C@@H](O)[C@H](Cc1ccccc1)NC(=O)[C@H](CC(N)=O)NC(=O)c1ccc2ccccc2n1.CS(=O)(=O)O` reads -72.1%; that for `O=C(Nc1ccc(N2CCOCC2)c(S(=O)(=O)Nc2cc(Cl)ccc2Cl)c1)c1cccnc1`, -0.224%.
The result for `Cc1nc2ccccc2c2oc(C(=O)N3CCC(C)CC3)cc12` reads -30.5%; that for `CCN(CC)S(=O)(=O)c1cc(OC)ccc1N=Nc1ccc(O)c2ncccc12`, 12.2%.
Consider `COC(=O)Cn1cc(C(=O)c2ccccc2F)c2ccccc21`, for which the “hERG current change (%, negative = inhibition) at 10uM” value is on record as -1.29%.
The result for `Cc1[nH]nc(SCC(=O)N2CCCC2)c1[N+](=O)[O-]` reads 13%; that for `Cc1cc(C)nc(Sc2ccc(/C=C(\C#N)C(N)=O)o2)n1`, -17.6%; that for `O=C(NC(=S)Nc1ccccc1Cl)c1ccco1`, 15.5%.
As to `COc1ccc(N=C(c2ccccc2)c2c(C)[nH]n(-c3ccccc3)c2=O)c(OC)c1`, the “hERG current change (%, negative = inhibition) at 10uM” value is recorded as 5.99%.
Turning to `NNC(=O)CSc1nc(-c2ccccc2)cn1-c1ccccc1`, the “hERG current change (%, negative = inhibition) at 10uM” value is recorded as -0.037%.
The result for `CCc1ccc(NC(=O)Cn2cccc2)cc1` reads -1.8%.
On to `COc1cc2c(cc1OC)C(C(=O)N1CCN(c3ccccc3)CC1)C(c1cccs1)N(C)C2=O` (stereo not shown), for which the “hERG current change (%, negative = inhibition) at 10uM” value was -68.1%.
As to `COc1cc2c(cc1/C=C1/NC(=O)N(CC(=O)Nc3ccccc3)C1=O)OCO2`, the “hERG current change (%, negative = inhibition) at 10uM” value stood at 9.51%.
For `COc1cc(NC(=O)Cc2ccccc2)nc(OC)n1`, the “hERG current change (%, negative = inhibition) at 10uM” value is reported as 16.7%.
The result for `Cc1cccc2cc(CN(Cc3cccs3)C(=S)NCC3CCCO3)c(=O)[nH]c12` (stereo not shown) reads -2.34%; that for `O=C(Nc1ccccc1N1CCCCC1)c1ccco1`, -1.72%; that for `Cn1cnc([N+](=O)[O-])c1Sc1ccc(C(C)(C)C)cc1`, -37.2%.
As for `COc1ccc2cnnc(SCC(=O)Nc3ccc(C(=O)O)cc3)c2c1OC`, the “hERG current change (%, negative = inhibition) at 10uM” value is -3.39%.
The result for `Cc1cccc(N2CCN(C(=O)c3ccccc3NC(=O)C3CC=CCC3C(=O)O)CC2)c1` (stereo not shown) reads 9.75%.
